Laboratory results as given in PubChem BioAssay AID2546 (National Center for Advancing Translational Sciences (NCATS), 2010).
Hit rate of the full screen: of about 310,000 compounds, about 11,000 (3.5%) were called active. This list was built around the results that the source calls inconclusive (neither active nor inactive); the mix of calls is not that of the screen. The call rests on the fitted dose curve; in most records, active means well fitted inhibition curve with a large enough effect; inconclusive means small, poorly fitted or top-dose-only effect, or effect the other way; inactive means flat fitted curve, though single readings scatter. No potency is given beside an inconclusive call; the fits are too rough.
On the % scale 0 is the no-effect control and ±100 the full control effect; potency means the concentration at half of the fitted maximal effect; tags describe the fitted curve by direction and shape.

Test: VP16 counterscreen qHTS for inhibitors of ROR gamma transcriptional activity;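 further: Gal4-VP16 expression switched on by copper sulfate through the metallothionein promoter; nearly all actives have a fitted effect of over 50% in size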
Details: Drosophila S2 Gal4-VP16 UAS-luciferase, luminescence, 20 h; activity, negative = inhibition: at 53.6 µM (top of the series)
With `CCN(CC)S(=O)(=O)c1ccc(N2CCCC2)c(NC(=O)c2c(-c3ccccc3)noc2C)c1` the “activity, negative = inhibition” value was inactive: 1.31%. In the case of `Cc1cccc(NC(=O)Nc2ccc(C)cc2Br)c1`, the Potency was inconclusive [inhibitor, single point]. With `CC(=O)c1cc2c(C)c(C(=O)c3ccccc3)oc2cc1O` the Potency was inconclusive [inhibitor, partial curve]. With `Fc1ccccc1CSc1nnc(-c2cccs2)o1` the Potency was inconclusive [activator, single point]. In the case of `CC1(C)Cc2c(sc(NC(=O)COc3cccc4ccccc34)c2C#N)C(C)(C)N1`, the Potency was active: 5.01 µM. With `CCCc1c(C)nc(N2CCN(c3ccccc3F)CC2)[nH]c1=O` the “activity, negative = inhibition” value was inactive: -0.917%. For `Cc1cccc(OCCN2C(=O)c3ccccc3C2=O)c1`, the Potency was inconclusive [activator, full curve]. In the case of `Cc1ccc(-c2nnc(N3CCN(C(=O)c4ccco4)CC3)c3ccccc23)cc1`, the Potency was inconclusive [inhibitor, partial curve]. With `CCOc1ccc2[nH]c(=S)[nH]c2c1` the Potency was inconclusive [inhibitor, single point]. In the case of `CCOc1cc(C=O)ccc1OCCSc1ccc(C)cc1`, the Potency was inconclusive [inhibitor, partial curve]. For `CCNC(=S)NNC(=O)C(c1ccccc1)c1ccccc1`, the Potency was active: 11.2 µM. In the case of `CCN(CC)S(=O)(=O)c1ccc(C(=O)Nc2nnc(CSC)o2)cc1`, the Potency was active: 3.98 µM. In the case of `CC1CC(C)(C)CC2(C1)NC(=S)N(c1ccccc1)N2` (stereo unspecified), the Potency was inconclusive [inhibitor, single point]. With `Fc1ccc(CNC(=S)Nc2ccc(Cl)cc2Cl)cc1` the Potency was active: 5.62 µM. With `CC(C)COc1ccc(C(=O)NC(Cc2c[nH]c3ccccc23)C(=O)NN)cc1` (stereo unspecified) the “activity, negative = inhibition” value was inactive: -7.26%. In the case of `O=C(NNC(=S)NC(=O)c1ccccc1)c1cccnc1`, the Potency was inconclusive [inhibitor, single point]. In the case of `CC(C)CNC(=O)COC(=O)c1cc(S(=O)(=O)N2CCCCC2)ccc1N1CCOCC1`, the “activity, negative = inhibition” value was inactive: 4.9%. With `Cc1cc2c(cc1C)CSC(c1c(O)ccc3ccccc13)SC2` the Potency was inconclusive [inhibitor, single point]. With `O=C(OC(C(=O)NCc1ccco1)C(OC(=O)c1ccccc1)C(=O)NCc1ccco1)c1ccccc1` (stereo unspecified) the Potency was inconclusive [inhibitor, partial curve]. In the case of `COc1ccc(OC)c(NC(=O)c2cc(S(=O)(=O)N3CCCC3)cn2C)c1`, the “activity, negative = inhibition” value was inactive: -16.8%. With `COc1c(CC=C(C)C)cc(C2CC(=O)c3c(O)cc(O)cc3O2)cc1CC=C(C)C` (stereo unspecified) the Potency was inconclusive [inhibitor, single point]. For `Cc1ccc(/C=N/n2c(COc3ccccc3)n[nH]c2=S)cc1`, the Potency was inconclusive [inhibitor, partial curve]. In the case of `COC(=O)C(=O)C/C(=N/Nc1ncnc2ccccc12)c1ccc(Cl)cc1`, the Potency was inconclusive [inhibitor, single point]. In the case of `CCOC(=O)c1cc(-c2ccc(Cl)cc2)nc2c1c(=O)[nH]c(=O)n2CCOC`, the Potency was inconclusive [inhibitor, single point]. For `Oc1c(C(Nc2cccc(C(F)(F)F)c2)c2cccnc2)ccc2cccnc12` (stereo unspecified), the Potency was active: 2.82 µM. In the case of `CC1CCN(C(=S)NC(=O)c2cccc([N+](=O)[O-])c2)CC1`, the Potency was active: 0.631 µM. In the case of `Nc1nnc(SCCCC(=O)c2ccccc2)s1`, the Potency was inconclusive [activator, partial curve]. For `CC1=CC(=O)N(c2ccn(C)n2)C1=O`, the Potency was active: 12.6 µM. With `Cc1ccc(S(=O)(=O)n2ccc3c(OCCOCCNCc4ccc(F)cc4)cccc32)cc1` the Potency was inconclusive [inhibitor, single point]. With `COc1ccc(S(=O)(=O)Nc2cc(C(C)C)c(O)cc2C)cc1` the Potency was inconclusive [inhibitor, single point]. In the case of `O=C(Nc1nccs1)c1cn(-c2ccccc2)nc1-c1ccccc1`, the Potency was inconclusive [inhibitor, single point]. With `COc1ccccc1N1CCN(C(=O)CCSCc2ccccc2F)CC1` the Potency was inconclusive [activator, single point]. With `CCOC(=O)c1cc2c(=O)n3ccccc3nc2n(Cc2ccco2)c1=NC(=O)c1ccccc1OCC` the “activity, negative = inhibition” value was inactive: -10.1%. With `CC(=O)c1nn(-c2ccccc2)cc1C(=O)c1cccc(Br)c1` the Potency was inconclusive [inhibitor, single point]. For `C(=C\c1ccccc1)/CSc1nnc(-c2cnccn2)n1Cc1ccco1`, the Potency was inconclusive [inhibitor, single point]. With `Cc1ccc2nc(NC(=O)c3cc(-c4ccco4)nc4ccccc34)sc2c1` the Potency was inconclusive [inhibitor, single point]. With `Cc1ccc(NC2=Nc3ccccc3CC2)cc1` the Potency was inconclusive [inhibitor, partial curve]. In the case of `Cn1ncc2c(O/N=C(\N)c3ccc(C(C)(C)C)cc3)ncnc21`, the Potency was inconclusive [inhibitor, partial curve]. For `O=C(N/N=C/c1ccccn1)c1cc(C2CC2)nc2ccccc12`, the Potency was active: 12.6 µM. In the case of `CC(C)C(=O)NC(=S)Nc1ccccc1F`, the Potency was inconclusive [inhibitor, single point]. With `Cc1nc2ccc(C(C(F)(F)F)(C(F)(F)F)C(F)(F)F)cc2[nH]1` the Potency was inconclusive [inhibitor, single point]. In the case of `c1ccc(CSc2nnc(-c3ccco3)n2Cc2ccco2)cc1`, the Potency was inconclusive [activator, single point]. For `Clc1ccc2[nH]cc(-c3nnnn3-c3ccc4ccccc4c3)c2c1`, the Potency was inconclusive [inhibitor, single point]. For `C/C(=N\NC(=O)c1ccc(NS(=O)(=O)c2cccs2)cc1)c1cccs1`, the “activity, negative = inhibition” value was inactive: 9.32%. With `N#CCCNS(=O)(=O)c1ccc(C(=O)OCCCOC(=O)c2ccc(S(=O)(=O)NCCC#N)cc2)cc1` the Potency was active: 17.8 µM. In the case of `O=C(Nc1ccccc1)c1ccc(NCc2ccco2)c(S(=O)(=O)N2CCOCC2)c1`, the “activity, negative = inhibition” value was inactive: -6.8%.
